Screen size: about 310,000 compounds; about 14,000 (4.5%) showed an effect of 50% or more. The effect is printed as a negative number. This is one part of the list.
Each molecule was assayed against human ether-à-go-go-related gene (hERG) potassium channel (human, UniProt Q12809) (assay: primary screen, population patch clamp on CHO cells stably expressing hERG).
Sequence of human ether-à-go-go-related gene (hERG) potassium channel (Q12809 whole entry, looked up): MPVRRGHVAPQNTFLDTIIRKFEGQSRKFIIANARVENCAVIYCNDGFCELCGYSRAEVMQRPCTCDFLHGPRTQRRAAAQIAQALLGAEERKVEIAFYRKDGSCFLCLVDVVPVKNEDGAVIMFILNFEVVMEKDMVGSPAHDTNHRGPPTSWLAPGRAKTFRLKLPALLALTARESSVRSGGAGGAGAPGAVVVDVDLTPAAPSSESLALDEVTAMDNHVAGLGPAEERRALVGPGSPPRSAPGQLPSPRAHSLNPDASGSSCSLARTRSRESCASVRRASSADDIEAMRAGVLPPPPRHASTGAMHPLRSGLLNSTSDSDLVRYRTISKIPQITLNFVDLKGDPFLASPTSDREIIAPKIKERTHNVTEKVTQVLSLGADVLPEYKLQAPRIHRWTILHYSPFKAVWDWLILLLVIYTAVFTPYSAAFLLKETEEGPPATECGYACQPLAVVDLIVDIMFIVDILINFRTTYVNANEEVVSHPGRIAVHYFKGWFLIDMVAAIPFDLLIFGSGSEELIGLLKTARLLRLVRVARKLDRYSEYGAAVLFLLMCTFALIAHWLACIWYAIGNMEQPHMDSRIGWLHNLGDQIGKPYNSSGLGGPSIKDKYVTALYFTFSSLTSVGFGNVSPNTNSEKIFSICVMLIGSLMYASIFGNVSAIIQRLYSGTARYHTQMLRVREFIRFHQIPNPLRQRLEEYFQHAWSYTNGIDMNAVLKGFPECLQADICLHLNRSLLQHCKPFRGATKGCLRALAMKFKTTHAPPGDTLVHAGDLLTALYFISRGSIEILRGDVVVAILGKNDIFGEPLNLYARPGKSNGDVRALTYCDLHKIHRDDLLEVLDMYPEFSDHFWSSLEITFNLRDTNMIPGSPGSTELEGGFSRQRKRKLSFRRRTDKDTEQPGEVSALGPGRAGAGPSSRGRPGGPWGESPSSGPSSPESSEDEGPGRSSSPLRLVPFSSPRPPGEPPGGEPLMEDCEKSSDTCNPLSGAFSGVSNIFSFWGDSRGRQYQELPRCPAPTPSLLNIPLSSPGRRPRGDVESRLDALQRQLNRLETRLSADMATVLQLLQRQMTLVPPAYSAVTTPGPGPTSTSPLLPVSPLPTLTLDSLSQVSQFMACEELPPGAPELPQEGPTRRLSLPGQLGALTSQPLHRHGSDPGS
With `CCCN(CCC)S(=O)(=O)c1ccc(C(=O)Nc2nnc(-c3cc(OC)cc(OC)c3)o2)cc1` the “hERG current change (%, negative = inhibition) at 10uM” value was 3.19%.
In the case of `O=C(NCC(=O)N1CCCC(C(F)(F)F)C1)c1ccc(Oc2ccccc2)cc1` (centres unmarked), the “hERG current change (%, negative = inhibition) at 10uM” value is reported as -29.7%.
With `O=C(CCC(=O)N1CCOc2ccc(Cl)cc21)NCc1ccccc1` the “hERG current change (%, negative = inhibition) at 10uM” value was -21.7%.
In the case of `COc1cc(/C=N/OCC(=O)NC2CCS(=O)(=O)C2)ccc1OC(F)F` (centres unmarked), the “hERG current change (%, negative = inhibition) at 10uM” value is reported as -16.1%.
`N#Cc1c(SCC(=O)OCc2ccccc2)nsc1SCC(=O)OCc1ccccc1` was tested, and the “hERG current change (%, negative = inhibition) at 10uM” value was -6.08%.
For `O=C(COc1ccc(Br)cc1CO)Nc1ccc(F)cc1`, the “hERG current change (%, negative = inhibition) at 10uM” value was -32.8%.
For `O=C(CSc1nnc(Cc2cc(=O)[nH]c(=O)[nH]2)n1-c1ccc(F)cc1)N1CCCCC1`, the “hERG current change (%, negative = inhibition) at 10uM” value was 7.82%.
For `COc1ccc(-c2nnc(SC3CCOC3=O)n2C2CCCCC2)cc1OC` (centres unmarked), the “hERG current change (%, negative = inhibition) at 10uM” value was -11.5%.
In the case of `O=C(Cc1ccc(Cl)cc1)Nc1ccc(S(=O)(=O)Nc2ncccn2)cc1`, the “hERG current change (%, negative = inhibition) at 10uM” value is reported as 23.3%.
`O=c1[nH]c2cc3c(cc2cc1CN(CCCO)C(=S)NCc1ccco1)OCO3` was tested, and the “hERG current change (%, negative = inhibition) at 10uM” value was 12%.
For `CCc1ccc(NS(=O)(=O)c2cccc3nsnc23)cc1`, the “hERG current change (%, negative = inhibition) at 10uM” value was 9.94%.
In the case of `Cc1nc(C)c(-c2ccc(SCc3cccc(F)c3)nn2)s1`, the “hERG current change (%, negative = inhibition) at 10uM” value is reported as -50.6%.
With `COc1cc2c(cc1NC(=O)COC(=O)CNS(=O)(=O)c1ccc(C)cc1)oc1ccccc12` the “hERG current change (%, negative = inhibition) at 10uM” value was 1.63%.
`N#CC1=C(Nc2ccccc2)SC=C(c2ccc(Br)cc2)N=C1N1CCOCC1` was tested, and the “hERG current change (%, negative = inhibition) at 10uM” value was -64.7%.
In the case of `COc1ccc(N2CCN(S(=O)(=O)CCNC(=O)c3ccc(Br)o3)CC2)cc1`, the “hERG current change (%, negative = inhibition) at 10uM” value is reported as 10.6%.
In the case of `CCCC(C)(C)NC(=O)CCCCC(=O)NC(C)(C)CCC`, the “hERG current change (%, negative = inhibition) at 10uM” value is reported as -9.49%.
With `O=C(Cc1csc(-c2ccc(Cl)cc2)n1)Nc1cccc(S(=O)(=O)NC2=NCCC2)c1` the “hERG current change (%, negative = inhibition) at 10uM” value was 1.53%.
In the case of `Cc1cccc(NC(=O)c2sccc2-n2cccc2)c1C`, the “hERG current change (%, negative = inhibition) at 10uM” value is reported as 0.147%.
In the case of `O=C(NCCCN1CCCC1=O)c1cc2ccccc2o1`, the “hERG current change (%, negative = inhibition) at 10uM” value is reported as -11.2%.
`Cc1ccc(S(=O)(=O)NCCn2nc(C)nc2C)cc1` was tested, and the “hERG current change (%, negative = inhibition) at 10uM” value was 24.8%.
`O=C(CCC(=O)NC1CCCCC1)Nc1cccnc1` was tested, and the “hERG current change (%, negative = inhibition) at 10uM” value was 11.3%.
With `O=C(c1cnc2ccccc2n1)N1CCN(c2ccc(C(F)(F)F)cn2)CC1` the “hERG current change (%, negative = inhibition) at 10uM” value was -17.1%.
For `Cc1[nH]c(=O)[nH]c(=O)c1/C=N/NC(=O)[C@@H](N)CC(C)C.Cl`, the “hERG current change (%, negative = inhibition) at 10uM” value was -4.29%.
In the case of `CC(OC(=O)c1ccccn1)C(=O)Nc1ccc2c(c1)OCCO2` (centres unmarked), the “hERG current change (%, negative = inhibition) at 10uM” value is reported as 8.14%.
`Fc1cccc(CCN2C(=S)NC[C@@H]2Cc2ccccc2)c1` was tested, and the “hERG current change (%, negative = inhibition) at 10uM” value was -19.8%.
For `C[C@]12CCC(=O)C=C1CC[C@@H]1C2CC[C@]2(C)C(=O)CCC12` (some centres unmarked), the “hERG current change (%, negative = inhibition) at 10uM” value was -0.99%.
`NC(N)=NC(N)=Nc1cccc2ccccc12` was tested, and the “hERG current change (%, negative = inhibition) at 10uM” value was 11.6%.
For `C=CCNC(=S)NS(=O)(=O)c1cccs1`, the “hERG current change (%, negative = inhibition) at 10uM” value was 11.6%.
`O=C(c1ccc(-c2ccccc2Cl)o1)N1CCN(c2ccccc2O)CC1` was tested, and the “hERG current change (%, negative = inhibition) at 10uM” value was 8.64%.
With `Cl.O=C(CCS(=O)(=O)c1ccccc1)N(CCCN1CCOCC1)c1nc2c(F)cccc2s1` the “hERG current change (%, negative = inhibition) at 10uM” value was -21%.
`COCC(=O)N1CCCN(c2nc3c(C)cccc3cc2C#N)CC1` was tested, and the “hERG current change (%, negative = inhibition) at 10uM” value was -22.2%.
For `Cc1ccc(S(=O)(=O)Nc2ccccc2C(=O)N2CCN(C)CC2)cc1`, the “hERG current change (%, negative = inhibition) at 10uM” value was -3.2%.
`COC(=O)[C@H](CCSC)NC(=O)NCc1ccccn1` was tested, and the “hERG current change (%, negative = inhibition) at 10uM” value was -0.164%.
With `O=C(Nc1cccc(Cl)c1)N1CCN(c2ncccn2)CC1` the “hERG current change (%, negative = inhibition) at 10uM” value was -5.41%.
For `CCCCCC1CCC(C(=O)NNC(=S)NCC)CC1` (centres unmarked), the “hERG current change (%, negative = inhibition) at 10uM” value was -1.5%.
With `Cn1c(SCC(=O)N2CCCC2)nnc1-c1ccc2c(c1)OCO2` the “hERG current change (%, negative = inhibition) at 10uM” value was 10.9%.
`Cc1ccc(C(=O)N2CCN(S(=O)(=O)c3ccccc3C#N)CC2)cc1S(=O)(=O)N1CCOCC1` was tested, and the “hERG current change (%, negative = inhibition) at 10uM” value was -9.33%.
For `Cc1ccc(S(=O)(=O)N(C)C)cc1NC(=O)COC(=O)c1ccc2c(c1)OCCO2`, the “hERG current change (%, negative = inhibition) at 10uM” value was 2.61%.
`CCCn1c(=O)c(C(=O)NCc2cccnc2)c(O)c2ccccc21` was tested, and the “hERG current change (%, negative = inhibition) at 10uM” value was -34.7%.
For `CC(C)(C)NC(=O)C(c1ccco1)N(Cc1ccc(F)cc1)C(=O)c1snc(C(N)=O)c1N` (centres unmarked), the “hERG current change (%, negative = inhibition) at 10uM” value was -3.3%.
In the case of `O=C(Nc1ccc(S(=O)(=O)Nc2ccccn2)cc1)c1cccc(Cl)c1`, the “hERG current change (%, negative = inhibition) at 10uM” value is reported as 8.46%.
With `CCOc1ccc(C2/C(=C(\O)c3ccc4c(c3)OCCO4)C(=O)C(=O)N2CCCN2CCOCC2)cc1` (centres unmarked) the “hERG current change (%, negative = inhibition) at 10uM” value was 16%.
For `O=C(c1cc2ccccc2c(=O)o1)N1CCc2ccccc2C1`, the “hERG current change (%, negative = inhibition) at 10uM” value was -6.12%.
`O=C(NCCNC(=O)c1ccccn1)c1ccc(Cl)cc1` was tested, and the “hERG current change (%, negative = inhibition) at 10uM” value was 5.5%.
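Also: peak tail current of the secondary pulse compared with the same well before compound.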
